The other results are listed elsewhere or left out. Further columns of the screen follow, without active or inactive calls. Most of these compounds were active or inconclusive in the main read-out, so they are no random draw.
Test: growth inhibition of WT strain, primary screen, mitochondrial fusion inhibitor project, WT and mutant strains, chemical genetic (AID 1362); further: tested in S. cerevisiae
Settings: mitochondrial fusion phenotypic screen, at 10 µM

Row | SMILES | inhibition [%]
1 | O=C(CCn1nc(-c2ccccc2)c2ccccc2c1=O)NCC1CCCO1 (centres undefined) | 3.78
2 | CN(C)c1ccc(N=Nc2ccccc2C(=O)OCC(=O)NCC2CCCCC2)cc1 | 38.4
3 | CCN1/C(=C/c2ccc3cc(C)ccc3[n+]2CC)Sc2cc(C)c(C)cc21 | 89
4 | CCCCN(C(=O)c1cccc2c(=O)c(C)c(-c3ccccc3)oc12)c1ccccc1 | 23.4
5 | COc1cccc2sc(Nc3nc(-c4ccccn4)cs3)nc12 | 57.5
6 | CC(C)C(=O)N1CCN(c2ccc(NC(=O)c3ccc([N+](=O)[O-])o3)cc2Cl)CC1 | 90.3
7 | Cc1ccc(C(c2nnnn2CCc2ccccc2)N2CCC(C)CC2)cc1 (centres undefined) | 7.61
8 | CN(C)C(=O)/C(C#N)=C\c1cc(Br)c(Sc2ccc(Cl)cc2)o1 | 32.9
9 | O=[N+]([O-])c1cc(/C=N/O)ccc1Oc1cccc(Cl)c1 | 37.8
10 | O=C(NCCc1ccc(Cl)cc1)Nc1cccc(Cl)c1 | 23.3
11 | Cc1ccc(-c2cc(C(=O)N3CCCc4ccccc43)no2)cc1 | 46.7
12 | CC(C)(C)NC(=O)NC(=O)COC(=O)Cc1coc2ccc3ccccc3c12 | 8.56
13 | COc1ccc(C2C(C#N)=C(C)NC3=C2S(=O)(=O)c2ccccc23)cc1 (centres undefined) | 17.7
14 | COc1ccc(N2CCN(c3c(S(=O)(=O)c4ccccc4)cnc4ccc(OC)cc34)CC2)cc1 | 30.7
15 | CN1CCN(C2=Cc3ccccc3Sc3cc(F)c(Cl)cc32)CC1 | 96.7
16 | O=C(CCCCCn1c(=S)[nH]c2cc3c(cc2c1=O)OCO3)N1CCN(C(=O)c2ccco2)CC1 | -5.4
17 | Cc1ccc(NC(=O)c2nc[nH]c2C(=O)N[C@@H](C)c2ccccc2)cc1 | 65.2
18 | C=CCc1ccc(O)c(-c2ccc(O)c(CC=C)c2)c1 | 25.5
19 | CCN(CC)c1ccc(/C=C(\C#N)c2ccccn2)cc1 | 24.4
20 | O=C(Nc1nnc(C2=COCCO2)o1)c1ccc(Cl)cc1 | 39.4
21 | S=C(NCCCN1CCOCC1)N1CCN(c2nc(-c3ccc(Cl)cc3)cs2)CC1 | 44.1
22 | CC(C)CCNC(=O)CCCOc1cc(=O)n(C)c2ccccc12 | 12.1
23 | Cc1cc(Cl)cc(C)c1OCCCCn1ccnc1 | 68.1
24 | CCCCC(=O)NC(c1ccc([N+](=O)[O-])cc1)c1c(O)ccc2ccccc12 (centres undefined) | 23.8
25 | O=C(Nc1nc(-c2cccs2)c(C(=O)C(F)(F)F)s1)c1ccccc1 | 16.3
26 | COCC(C)NC(=S)NCCc1ccc(Cl)cc1Cl (centres undefined) | 35.1
27 | c1ccc(-c2nnn(C34CC5CC(CC(C5)C3)C4)n2)cc1 | 59.3

Row | SMILES | inhibition [%]
28 | O=C(c1ccc(Cn2c(=S)[nH]c3ccc(Br)cc3c2=O)cc1)N1CCN(C2CCCCC2)CC1 | 52.9
29 | Cc1cc(=O)n2[nH]c(-c3ccc(F)cc3)cc2n1 | 5.26
30 | CCCCCCc1nc2ccccc2c(=O)n1NC(=O)c1c(O)c2cccc3c2n(c1=O)CCC3 | -4.38
31 | CC(C)(C)C(=O)NC(=S)NNC(=O)c1ccc(-c2ccccc2)cc1 | 27.6
32 | COc1ccc2nc(NC(=O)c3cccc(OCc4c(C)noc4C)c3)sc2c1 | 15.8
33 | COc1ccc(-n2c(-c3ccc(Br)cc3)nc(=S)c3c2CCCC3)cc1 | 23
34 | CCN1/C(=C/c2sc(-c3ccccc3C)c[n+]2C)Sc2ccccc21 | 73.2
35 | CCN(CC)S(=O)(=O)c1cc(C(=O)Nc2cc(Cl)ccc2N2CCN(C)CC2)ccc1Cl | 40.3
36 | COc1ccc(Cc2nn[nH]n2)cc1 | -4
37 | COc1ccc(/C(C)=N/NC(=S)Nc2cc(C)ccc2C)cc1 | 54.4
38 | COc1cc(OC)c2c(c1)C(=O)c1cc(OC)cc(OC)c1C2=O | 11
39 | Cc1ccc(C2=CC(C)(c3ccc(C)cc3)Nc3nc(C(F)(F)F)nn32)cc1 (centres undefined) | -1.57
40 | CSc1cccc(NC(=O)/C=C/c2cccc(Cl)c2)c1 | 72.5
41 | Cc1ccc(OCc2n[nH]c(=S)n2C2CCCCC2)cc1 | 39.2
42 | O=[N+]([O-])c1ccc(Nc2c3ccccc3nc3ccccc23)cc1 | 24.7
43 | Cc1ccc(NC(CNS(=O)(=O)c2ccc(Cl)cc2)c2ccccc2)cc1 (centres undefined) | 37.4
44 | Cn1c(CN2CCCCC2)nc2cc(NC(=O)c3ccc(Cl)cc3)ccc21 | -22.7
45 | Cc1nn(-c2ccccc2)c(Cl)c1/C=N/NS(=O)(=O)c1ccc(Br)cc1 | 28.4
46 | Cc1ccc(S(=O)(=O)N2CCN(c3ccnc4cc(Cl)ccc34)CC2)cc1C | 58.1
47 | C/C(=N\NC(=S)NC1CCCCC1)c1ccc(OC(F)F)cc1OC(F)F | 28
48 | CCOC(=S)SCC(=O)Nc1nc(-c2ccc(Br)cc2)cs1 | 56.6
49 | O=[N+]([O-])c1ccc(N/N=C2/CCCCC2c2ccccn2)cc1 (centres undefined) | 65.4
50 | COc1cccc(C2=CC(c3ccccc3)n3nnnc3N2)c1 (centres undefined) | 2.51
51 | Cc1cc(C)c(NC(=O)c2cc3c(nc4sccn43)s2)c(C)c1 | 69
52 | CCOC(=O)C1=C(C)N=C2SC(C(=O)OC)=CC(=O)N2C1c1ccc(OC)cc1 (centres undefined) | 70.4
53 | Cc1cccc2sc(NC(=O)c3ccc(NS(=O)(=O)c4cccs4)cc3)nc12 | -18.8
54 | CC(C)(C)n1nnnc1C(c1cccnc1)N(Cc1ccccc1)Cc1cccs1 (centres undefined) | 25.6

— PubChem BioAssay AID1362 (SRMLSC, 2008)
